Source: ChEMBL document CHEMBL4346670, “Discovery of Novel Janus Kinase (JAK) and Histone Deacetylase (HDAC) Dual Inhibitors for the Treatment of Hematological Malignancies” (J Med Chem, 2019)

Legend:
[1] = target: Serine/threonine-protein kinase pim-2 (Homo sapiens) (UniProt Q9P1W9); assay: Inhibition of recombinant human PIM2 at 200 nM using CREBtide as substrate measured after 60 mins by LANCE method relative to control
[2] = target: Serine/threonine-protein kinase TBK1 (Homo sapiens) (UniProt Q9UHD2); assay: Inhibition of recombinant human TBK1 at 20 nM using Ulight-FLGFTYVAP as substrate measured after 15 mins by LANCE method relative to control
[3] = target: Tyrosine-protein kinase ABL1 (Homo sapiens) (UniProt P00519); assay: Inhibition of recombinant human ABL1 at 200 nM using Ulight-TK peptide as substrate measured after 30 mins by LANCE assay relative to control
UniProt P00519, sequence (P00519 whole entry): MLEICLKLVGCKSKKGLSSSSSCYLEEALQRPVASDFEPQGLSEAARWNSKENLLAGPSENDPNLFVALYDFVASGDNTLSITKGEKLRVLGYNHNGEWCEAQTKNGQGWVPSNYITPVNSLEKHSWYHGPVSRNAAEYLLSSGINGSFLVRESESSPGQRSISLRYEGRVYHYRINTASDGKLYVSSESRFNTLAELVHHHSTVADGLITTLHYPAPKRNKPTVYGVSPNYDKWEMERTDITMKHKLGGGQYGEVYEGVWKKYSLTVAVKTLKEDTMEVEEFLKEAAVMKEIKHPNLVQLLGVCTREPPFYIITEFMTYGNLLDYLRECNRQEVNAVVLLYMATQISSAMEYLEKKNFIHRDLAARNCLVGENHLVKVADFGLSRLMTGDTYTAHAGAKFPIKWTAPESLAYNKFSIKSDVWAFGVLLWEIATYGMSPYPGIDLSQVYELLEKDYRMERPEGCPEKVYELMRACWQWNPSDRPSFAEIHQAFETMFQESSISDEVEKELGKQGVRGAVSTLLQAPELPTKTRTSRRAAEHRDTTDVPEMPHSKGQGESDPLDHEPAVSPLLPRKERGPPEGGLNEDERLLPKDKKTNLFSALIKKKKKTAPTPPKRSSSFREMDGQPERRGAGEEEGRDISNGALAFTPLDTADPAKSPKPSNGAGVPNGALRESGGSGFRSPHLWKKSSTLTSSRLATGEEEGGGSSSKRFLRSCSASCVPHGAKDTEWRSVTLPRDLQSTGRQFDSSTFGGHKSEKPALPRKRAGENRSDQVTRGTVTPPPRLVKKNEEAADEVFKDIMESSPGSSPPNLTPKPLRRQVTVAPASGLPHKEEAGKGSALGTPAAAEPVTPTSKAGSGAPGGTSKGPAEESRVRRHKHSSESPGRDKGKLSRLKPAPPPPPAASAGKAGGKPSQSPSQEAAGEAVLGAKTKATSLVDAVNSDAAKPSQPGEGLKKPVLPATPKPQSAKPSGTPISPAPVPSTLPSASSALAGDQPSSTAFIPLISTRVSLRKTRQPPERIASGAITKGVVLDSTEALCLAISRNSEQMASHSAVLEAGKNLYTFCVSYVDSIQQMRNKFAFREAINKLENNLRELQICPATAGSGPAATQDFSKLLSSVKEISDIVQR
Summary of the method: (§1)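 Human recombinant kinases tested at 20 nM and 200 nM compound in an outsourced panel of 85 kinases. Activity measured as phosphorylation of a ULight-labelled substrate by LANCE detection, expressed as inhibition relative to control.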

[4] = Clearance in CD1(ICR) mouse at 1 mg/kg, iv by LC-MS/MS analysis; format: ADME, organism-based; conditions: in vivo
Summary of the method: (§2)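 Male ICR (CD-1) mice dosed IP or IV, vehicle 10% DMSO, 40% PEG400, 50% water. Blood taken from the jugular vein at set time points and held on ice. Plasma separated by centrifugation, stored at -80 °C, and analysed by LC-MS/MS.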

[5] = target: MAP kinase-interacting serine/threonine-protein kinase 1 (Homo sapiens) (UniProt Q9BUB5); assay: Inhibition of recombinant human MNK1 at 200 nM using CREBtide as substrate measured after 60 mins by LANCE assay relative to control
Summary of the method: (§3)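 Part of an 85-kinase selectivity panel run by a contract lab, with the test compound at 20 nM and at 200 nM. Each human recombinant kinase's phosphorylation of its peptide substrate was measured following the JAK assay method. Activity is given as percent inhibition.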

[6] = target: Focal adhesion kinase 1 (Homo sapiens) (UniProt Q05397); assay: Inhibition of recombinant human FAK1 at 200 nM using Ulight-TK peptide as substrate measured after 60 mins by LANCE method relative to control
Summary of the method: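 Part of an 85-kinase selectivity panel run by a contract lab. The test compound was screened at 20 nM and 200 nM against human recombinant kinases. Activity was quantified as phosphorylation of a ULight-labelled peptide substrate, read by LANCE detection. Percent inhibition was taken relative to control. The method is the same one used for JAKs.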

[7] = target: Serine/threonine-protein kinase PAK 2 (Homo sapiens) (UniProt Q13177); assay: Inhibition of recombinant human PAK2 at 200 nM using Ulight-RRRSLLE as substrate measured after 60 mins by LANCE method relative to control; summary of the method: as §3
[8] = target: Fibroblast growth factor receptor 3 (Homo sapiens) (UniProt P22607); assay: Inhibition of recombinant human FGFR3 at 200 nM using Ulight-CAGAGAIETDKEYYTVKD as substrate measured after 90 mins by LANCE method relative to control
UniProt P22607, sequence (P22607 whole entry, looked up): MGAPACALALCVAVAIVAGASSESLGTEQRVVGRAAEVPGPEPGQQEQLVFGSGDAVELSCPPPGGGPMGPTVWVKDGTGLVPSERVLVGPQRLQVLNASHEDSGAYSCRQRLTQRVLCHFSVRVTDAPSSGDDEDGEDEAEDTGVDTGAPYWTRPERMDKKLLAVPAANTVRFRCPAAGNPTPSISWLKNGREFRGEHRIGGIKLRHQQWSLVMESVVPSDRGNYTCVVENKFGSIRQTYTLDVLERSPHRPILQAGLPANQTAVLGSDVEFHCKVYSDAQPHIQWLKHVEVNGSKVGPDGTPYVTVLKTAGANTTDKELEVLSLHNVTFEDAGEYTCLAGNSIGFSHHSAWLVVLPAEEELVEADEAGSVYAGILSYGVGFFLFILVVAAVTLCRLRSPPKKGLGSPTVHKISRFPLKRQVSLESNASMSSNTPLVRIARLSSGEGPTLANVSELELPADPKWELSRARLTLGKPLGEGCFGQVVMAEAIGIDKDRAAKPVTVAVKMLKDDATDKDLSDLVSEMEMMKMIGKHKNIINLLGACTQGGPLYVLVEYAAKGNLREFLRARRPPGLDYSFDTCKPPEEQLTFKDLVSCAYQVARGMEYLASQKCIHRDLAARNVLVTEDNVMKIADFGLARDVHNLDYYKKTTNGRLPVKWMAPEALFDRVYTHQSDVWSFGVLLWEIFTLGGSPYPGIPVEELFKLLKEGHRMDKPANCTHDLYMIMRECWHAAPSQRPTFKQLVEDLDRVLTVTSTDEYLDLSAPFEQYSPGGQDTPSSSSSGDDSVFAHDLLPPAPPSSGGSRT
Summary of the method: (§4)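 Single-concentration screen within an 85-kinase panel run by a contract lab, with each compound tested at 20 nM and 200 nM. Human recombinant enzymes were used. Activity was quantified as phosphorylation of a peptide substrate read by LANCE time-resolved detection, and inhibition was expressed relative to control, using the same format as the JAK assay.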

[9] = target: Tyrosine-protein kinase Lck (Homo sapiens) (UniProt P06239); assay: Inhibition of recombinant human LCK at 20 nM using Ulight-Poly GAT[EAY(1:1:1)] as substrate measured after 10 mins by LANCE method relative to control; summary of the method: as §3
[10] = target: Tyrosine-protein kinase receptor UFO (Homo sapiens) (UniProt P30530); assay: Inhibition of recombinant human AXL at 200 nM using Ulight-TK peptide as substrate measured after 180 mins by LANCE assay relative to control; summary of the method: as §1
UniProt P30530, sequence (P30530 whole entry): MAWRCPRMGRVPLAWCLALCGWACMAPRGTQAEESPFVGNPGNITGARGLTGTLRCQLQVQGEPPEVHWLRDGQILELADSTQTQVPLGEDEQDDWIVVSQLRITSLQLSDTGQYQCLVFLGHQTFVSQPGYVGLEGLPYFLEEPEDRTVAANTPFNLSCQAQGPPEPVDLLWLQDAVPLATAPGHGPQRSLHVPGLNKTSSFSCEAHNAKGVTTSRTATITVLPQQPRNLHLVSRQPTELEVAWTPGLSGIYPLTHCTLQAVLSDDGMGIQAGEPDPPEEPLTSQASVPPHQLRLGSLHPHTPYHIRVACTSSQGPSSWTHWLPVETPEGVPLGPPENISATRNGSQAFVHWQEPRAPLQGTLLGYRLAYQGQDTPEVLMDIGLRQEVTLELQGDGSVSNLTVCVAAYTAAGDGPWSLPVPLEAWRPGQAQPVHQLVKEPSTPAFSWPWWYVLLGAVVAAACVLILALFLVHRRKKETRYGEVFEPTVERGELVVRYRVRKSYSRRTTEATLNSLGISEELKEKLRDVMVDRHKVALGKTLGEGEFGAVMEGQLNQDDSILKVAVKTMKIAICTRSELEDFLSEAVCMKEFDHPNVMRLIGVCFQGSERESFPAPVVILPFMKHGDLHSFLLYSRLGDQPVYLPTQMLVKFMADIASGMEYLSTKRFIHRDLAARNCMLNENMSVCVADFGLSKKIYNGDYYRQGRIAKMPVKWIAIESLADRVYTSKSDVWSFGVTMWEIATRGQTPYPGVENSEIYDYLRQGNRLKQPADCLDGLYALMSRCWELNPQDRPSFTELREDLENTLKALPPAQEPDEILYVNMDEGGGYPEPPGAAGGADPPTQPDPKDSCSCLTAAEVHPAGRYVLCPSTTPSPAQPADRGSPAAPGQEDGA

[11] = target: Fibroblast growth factor receptor 2 (Homo sapiens) (UniProt P21802); assay: Inhibition of recombinant human FGFR2 at 20 nM using Ulight-CAGAGAIETDKEYYTVKD as substrate measured after 15 mins by LANCE method relative to control; summary of the method: as §4
UniProt P21802, sequence (P21802 whole entry, looked up, the tested form may be a part): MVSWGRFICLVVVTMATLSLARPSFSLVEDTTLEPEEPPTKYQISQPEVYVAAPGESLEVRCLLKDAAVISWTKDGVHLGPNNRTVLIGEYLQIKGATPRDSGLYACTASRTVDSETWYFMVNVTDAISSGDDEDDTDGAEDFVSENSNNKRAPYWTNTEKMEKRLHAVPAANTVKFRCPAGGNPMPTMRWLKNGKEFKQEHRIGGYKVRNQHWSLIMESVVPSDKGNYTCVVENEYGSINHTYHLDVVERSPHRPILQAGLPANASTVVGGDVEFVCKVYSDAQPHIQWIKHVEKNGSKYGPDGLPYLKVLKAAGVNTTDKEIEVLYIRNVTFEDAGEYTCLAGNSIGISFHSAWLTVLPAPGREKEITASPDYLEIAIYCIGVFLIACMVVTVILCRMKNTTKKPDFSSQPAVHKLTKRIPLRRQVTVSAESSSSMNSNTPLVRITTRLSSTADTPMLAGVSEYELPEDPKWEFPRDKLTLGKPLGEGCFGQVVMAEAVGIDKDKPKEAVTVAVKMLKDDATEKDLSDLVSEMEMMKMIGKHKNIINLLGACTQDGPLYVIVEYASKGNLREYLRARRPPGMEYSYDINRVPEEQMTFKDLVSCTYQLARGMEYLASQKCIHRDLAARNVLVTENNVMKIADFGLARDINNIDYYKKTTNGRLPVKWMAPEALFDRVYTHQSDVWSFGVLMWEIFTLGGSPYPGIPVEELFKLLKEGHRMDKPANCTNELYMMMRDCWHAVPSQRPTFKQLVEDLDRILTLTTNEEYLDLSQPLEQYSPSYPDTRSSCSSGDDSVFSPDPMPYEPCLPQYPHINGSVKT

[12] = AUC (0 to t) in CD1(ICR) mouse at 1 mg/kg, iv by LC-MS/MS analysis; format: ADME, organism-based; conditions: in vivo; summary of the method: as §2
[13] = target: Serine/threonine-protein kinase Sgk1 (Homo sapiens) (UniProt O00141); assay: Inhibition of recombinant human SGK1 at 200 nM using Ulight-RRRSLLE as substrate measured after 30 mins by LANCE method relative to control
UniProt O00141, sequence (O00141 whole entry): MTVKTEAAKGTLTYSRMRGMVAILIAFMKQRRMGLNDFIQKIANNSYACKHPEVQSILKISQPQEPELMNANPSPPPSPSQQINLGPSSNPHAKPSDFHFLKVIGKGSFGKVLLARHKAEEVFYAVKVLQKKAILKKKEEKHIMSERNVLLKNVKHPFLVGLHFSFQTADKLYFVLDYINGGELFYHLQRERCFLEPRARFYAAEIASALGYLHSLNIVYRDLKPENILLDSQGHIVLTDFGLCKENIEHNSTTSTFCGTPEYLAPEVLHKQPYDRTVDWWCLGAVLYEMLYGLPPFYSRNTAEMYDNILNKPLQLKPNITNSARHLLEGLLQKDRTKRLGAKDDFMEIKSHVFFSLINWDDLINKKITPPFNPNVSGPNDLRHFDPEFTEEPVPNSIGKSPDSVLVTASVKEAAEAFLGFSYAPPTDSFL

[14] = target: Serine/threonine-protein kinase MARK1 (Homo sapiens) (UniProt Q9P0L2); assay: Inhibition of recombinant human MARK1 at 200 nM using Ulight-RRRSLLE as substrate measured after 30 mins by LANCE method relative to control; summary of the method: as §3
[15] = target: Phosphorylase b kinase gamma catalytic chain, liver/testis isoform (Homo sapiens) (UniProt P15735); assay: Inhibition of recombinant human PHKG2 at 20 nM using CREBtide as substrate measured after 30 mins by LANCE method relative to control
[16] = target: Dual specificity protein kinase CLK1 (Homo sapiens) (UniProt P49759); assay: Inhibition of recombinant human CLK1 at 200 nM using Ulight-CFFKNIVTPRTPPPSQGK-amide as substrate measured after 30 mins by LANCE assay relative to control; summary of the method: as §4
[17] = target: Fibroblast growth factor receptor 3 (Homo sapiens) (UniProt P22607); assay: Inhibition of recombinant human FGFR3 at 20 nM using Ulight-CAGAGAIETDKEYYTVKD as substrate measured after 90 mins by LANCE method relative to control; summary of the method: as §4
[18] = target: Inhibitor of nuclear factor kappa-B kinase subunit alpha (Homo sapiens) (UniProt O15111); assay: Inhibition of recombinant human IKKalpha at 200 nM using Ulight-IkappaB-alpha as substrate measured after 30 mins by LANCE method relative to control; summary of the method: as §3
[19] = target: Serine/threonine-protein kinase pim-2 (Homo sapiens) (UniProt Q9P1W9); assay: Inhibition of recombinant human PIM2 at 20 nM using CREBtide as substrate measured after 60 mins by LANCE method relative to control
[20] = target: Tyrosine-protein kinase Yes (Homo sapiens) (UniProt P07947); assay: Inhibition of recombinant human YES at 20 nM using biotinyl-beta amyloid-beta amyloid-beta AYQAEENTYDEYEN as substrate after 30 mins by LANCE method relative to control
UniProt P07947, sequence (P07947 whole entry, looked up): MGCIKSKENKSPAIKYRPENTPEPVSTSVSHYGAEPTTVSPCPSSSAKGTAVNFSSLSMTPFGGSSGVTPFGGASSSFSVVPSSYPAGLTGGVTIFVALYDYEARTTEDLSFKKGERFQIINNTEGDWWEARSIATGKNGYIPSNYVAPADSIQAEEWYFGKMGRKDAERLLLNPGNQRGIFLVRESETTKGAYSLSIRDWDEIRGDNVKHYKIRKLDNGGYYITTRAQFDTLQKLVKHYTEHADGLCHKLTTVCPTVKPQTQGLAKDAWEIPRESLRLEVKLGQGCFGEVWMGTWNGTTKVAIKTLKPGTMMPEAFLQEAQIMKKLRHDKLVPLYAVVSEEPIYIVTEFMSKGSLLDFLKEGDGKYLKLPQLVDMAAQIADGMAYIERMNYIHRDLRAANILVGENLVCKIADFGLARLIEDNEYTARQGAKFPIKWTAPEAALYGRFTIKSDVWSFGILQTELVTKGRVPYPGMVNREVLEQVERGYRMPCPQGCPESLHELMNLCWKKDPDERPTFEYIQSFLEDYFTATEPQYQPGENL

[21] = target: Fibroblast growth factor receptor 2 (Homo sapiens) (UniProt P21802); assay: Inhibition of recombinant human FGFR2 at 200 nM using Ulight-CAGAGAIETDKEYYTVKD as substrate measured after 15 mins by LANCE method relative to control; summary of the method: as §4
[22] = target: LIM domain kinase 1 (Homo sapiens) (UniProt P53667); assay: Inhibition of recombinant human LIMK1 at 200 nM using Ulight-RRRSLLE as substrate measured after 180 mins by LANCE method relative to control; summary of the method: as §3
[23] = target: Serine/threonine-protein kinase 4 (Homo sapiens) (UniProt Q13043); assay: Inhibition of recombinant human MST1 at 200 nM using Ulight-FLGFTYVAP as substrate measured after 60 mins by LANCE method relative to control; summary of the method: as §3
[24] = target: Proto-oncogene tyrosine-protein kinase Src (Homo sapiens) (UniProt P12931); assay: Inhibition of recombinant human SRC at 200 nM using Ulight-Poly GAT[EAY(1:1:1)] as substrate measured after 10 mins by LANCE method relative to control

UniProt Q9P1W9, sequence (Q9P1W9 whole entry, looked up): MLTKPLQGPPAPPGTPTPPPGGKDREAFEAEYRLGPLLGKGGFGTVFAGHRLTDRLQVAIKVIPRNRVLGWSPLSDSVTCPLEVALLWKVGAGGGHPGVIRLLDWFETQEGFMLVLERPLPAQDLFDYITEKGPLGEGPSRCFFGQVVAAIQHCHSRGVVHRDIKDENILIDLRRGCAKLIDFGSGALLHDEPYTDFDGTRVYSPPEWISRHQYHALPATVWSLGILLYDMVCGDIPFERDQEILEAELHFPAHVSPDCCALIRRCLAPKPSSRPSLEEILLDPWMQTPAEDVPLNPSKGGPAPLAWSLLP

inhibition [1]: 1%
inhibition [2]: 0%
inhibition [3]: 26%
clearance [4]: 643 mL/min/kg
inhibition [5]: 0%
inhibition [6]: 38%
inhibition [7]: 7%
inhibition [8]: 65%
inhibition [9]: 1%
inhibition [10]: 32%
inhibition [11]: 9%
AUC(0-t) [12]: 28.4 ng·h/mL
inhibition [13]: 0%
inhibition [14]: 10%
inhibition [15]: 10%
inhibition [16]: 52%
inhibition [17]: 36%
inhibition [18]: 7%
inhibition [19]: -5%
inhibition [20]: 18%
inhibition [21]: 79%
inhibition [22]: 0%
inhibition [23]: 23%
inhibition [24]: 24%
Structure (SMILES): O=C(CCCCCn1cc(Nc2ncc(Cl)c(Nc3ccc(Cl)cc3)n2)cn1)NO
